# Reference: paper PMC12136788
# Where a chain is given by its changes, count along the chain named. The list shows a part of the results.
# T1: UNK ZnF1-3 (human, UniProt Q9C0B0 31-174)
# T1 sequence: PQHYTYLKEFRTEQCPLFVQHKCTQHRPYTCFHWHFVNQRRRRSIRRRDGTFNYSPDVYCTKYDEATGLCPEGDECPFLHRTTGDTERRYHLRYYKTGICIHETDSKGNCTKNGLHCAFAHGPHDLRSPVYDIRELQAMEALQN
# B1: chr11:77336104:77336105:-_ENSG00000074201_ENST00000525064|hu_mus|hu_hu_hu_mus_False|58_98 (ssRNA)
# RNA: GGGAGUUCUACAGUCCGACGAUCCUCACACAUUGCUGUGAACAUUGCCUCCAAUGCUGACUUAUCACUGGGCACAAAUCUAAAUUCAGAAAUGGGUUCAACAUCAUCAUUGUCUUCCUCAUCUUCAUCAGAGAGAGGUUCUUUCAACAGAGGAUUGAGCAUCA
# B2: chr1:39494564:39494565:+_ENSG00000168653_ENST00000372967|hu_hu|hu_hu_hu_mus_True|78_88 (ssRNA)
# RNA: GGGAGUUCUACAGUCCGACGAUCAUGCAUUCGCCUCAUCGUUUUGUGCCGAAGCAAACACUCUACGAAGUCAUCGAACUCUAUCUUGCACUCCUUUUUCGCCCGGGUCCCACCGAUCCCGUGUGCACACUCUAUCCACUCUUUCAACAGAGGAUUGAGCAUCA
# B3: chr12:1897663:1897664:+_ENSG00000006831_ENST00000357103|hu_hu|FALSE|FALSE (ssRNA)
# RNA: GGGAGUUCUACAGUCCGACGAUCUUGUGGCUUUAGCAUAAUUUAUAAAGGGGAAGAGGGAAAAUACUGAAAAAGGCCACUAUUUAAUGGUGAAAGAAUGAAGCUGUAGAGGUCCCAACCAGCCUAGGGCCAAAAAAGAAAAUUCAACAGAGGAUUGAGCAUCA
# B4: chr5:43656058:43656059:+_ENSG00000112992_ENST00000512996|hu_hu|FALSE|FALSE (ssRNA)
# RNA: GGGAGUUCUACAGUCCGACGAUCGUAGGCCACAAUCUUGGUGAGAUUUGCUGCUGCAUCCGUAGCAAAAUGUGGAUAUUCUAUAAUGUACUCAGCUAUGCAAGUAAGUACAGCUGCCAAACCCACUAAACUGUGAAAAGCAGCCAACAGAGGAUUGAGCAUCA
# B5: 74036505_74037053_1752_CDS_ENSG00000167881_ENST00000307877|human|control|control (ssRNA)
# RNA: GGGAGUUCUACAGUCCGACGAUCGUCCUUGACUUGGGAGGAGGAGGUCUCUGUUUGAUGAGCGUCGUUUGCAUCAAGGAUGGCUGCGGCCUGCAGGGAGCACUUCUCUGACCGCACUUGAGUGAUGAGCUCUUGCACAUCAGGCAACAGAGGAUUGAGCAUCA
# B6: 56982380_56985783_411_CDS_ENSG00000008988_ENST00000519807|human|control|control (ssRNA)
# RNA: GGGAGUUCUACAGUCCGACGAUCAGAUUCGAUCAACUCAACUCCUGGCUCAAUACUGAUGGAAGUAAUCUGCUUAACAAUCUCAGAAGGACUGUGCAAGUCAAUGAGUCGCUUGUGAAUUCUCAUCUGGAAACGAUCCCACGUCAACAGAGGAUUGAGCAUCA
# B7: chr1:39494447:39494448:+_ENSG00000168653_ENST00000372967|hu_mus|hu_hu_hu_mus_False|38_98 (ssRNA)
# RNA: GGGAGUUCUACAGUCCGACGAUCGCACCGAGCGGCGAUCUUGUAGGGCUGUUCUGCGCUUAGGAACAUAAAGUGCCGGUCCAGGCUGAUGCCCAGCCUUUUCUGGAUGUCAAGGAAAGGCAUGGCUCUGCAGUGCCCUUGUCACAACAGAGGAUUGAGCAUCA
# B8: chr2:155494191:155494192:-_ENSMUSG00000038324_ENSMUST00000041059|mus_hu|motif|central (ssRNA)
# RNA: GGGAGUUCUACAGUCCGACGAUCUUCAUCACUUAUUUUCAGUUUCUGUCCCCGGAUAGAGAUCGUAGGCCUCAUAAGAAUUUCGGCAAGAAGAUCAACACCUCCAAACAAGUCAAAAAUGUAAGUAUUUGGAUAAGUGGUUUCCAACAGAGGAUUGAGCAUCA
# B9: chr7:118225073:118225074:-_ENSMUSG00000005610_ENSMUST00000162415|mus_hu|FALSE|FALSE (ssRNA)
# RNA: GGGAGUUCUACAGUCCGACGAUCGCACUGAAACGAGAAGCACCCCCUUCUGCAAUCGCACUCUCCACUUUGGCGGCUUGACAACGAAGAAUCUUCAAAAGAAUAAUAUUAAUAGAUGGGGUGGGGAGGGGAGGGGACAGGAGACAACAGAGGAUUGAGCAUCA
# B10: chr12:39687547:39687548:-_ENSG00000139116_ENST00000551264|hu_hu|FALSE|FALSE (ssRNA)
# RNA: GGGAGUUCUACAGUCCGACGAUCACAUCAACAAUGUUUCCCAUCACAGAAUAUAUGCACAGCACUGGAAAAAAAAAAAAAAAUUAACAGCAUUUUAGUCCUGAGCACAGAAUAUAGUAGAGCUGCAAAACUUUGGUCAAUACACAACAGAGGAUUGAGCAUCA
# B11: 39905808_39910131_1716_3pUTR_ENSG00000121892_ENST00000303538|human|control|control (ssRNA)
# RNA: GGGAGUUCUACAGUCCGACGAUCCCACCGUUUAUCCAGUGUUCUUUCCCUUACAAAGCCAAGCAGCUGAUCAUUUACUAAGGCCAGGUCCCUCUUGGCAGCUGUUAUUAUAGUAACAAUGACAUCAUGACGAAUAGCUUCUUCCAACAGAGGAUUGAGCAUCA
# B12: chr10:33190432:33190433:-_ENSG00000150093_ENST00000302278|hu_mus|hu_hu_hu_mus_True|38_78 (ssRNA)
# RNA: GGGAGUUCUACAGUCCGACGAUCUACAUUUUCCAAACCUGCAUGUGAAUAAAACCCUGGCAAUAUUGCCCCAAAACUACCCUACUGUGACUAAGAUAAUUGCUACUUGAGCUUGGUGUUGCAAAAUCCGCCUGAGUAGGAUUCCAACAGAGGAUUGAGCAUCA
# B13: 59419958_59420328_1429_CDS_ENSG00000166889_ENST00000300146|human|control|control (ssRNA)
# RNA: GGGAGUUCUACAGUCCGACGAUCUUUGGCCACCUGAGGGGUGAUAAGCUUGGUGCGCUCCUUCUUAGGGCCAUCACCUUGUAUUUCUUCAGCAGCUGACAGUUUCUCCAGUUUUUCAAAGUAAUUCUGGUAAUAAAAAUCAUCCAACAGAGGAUUGAGCAUCA
# B14: 22874823_22874943_2137_CDS_ENSG00000008853_ENST00000522948|human|control|control (ssRNA)
# RNA: GGGAGUUCUACAGUCCGACGAUCGGCUGCCGAGGAAGACGGGGAGGAUGGACUGUUCCAGAAGAGCCAACGCCGUUUGGGCUGCCGCUUGAGGUGGAGGUAGUCCUCCUUCUCACGCUCCUUCCGUGCCCGCUGGUAAUGAUCCAACAGAGGAUUGAGCAUCA
# B15: 93646273_93653560_803_CDS_ENSMUSG00000027198_ENSMUST00000028623|mouse|control|control (ssRNA)
# RNA: GGGAGUUCUACAGUCCGACGAUCAAAGCCGCCACCAGCCAGCAGUGCCCUGUCUCUGGGGACAUCCAGGGCAGUGUUGUAAUCUGGGGGAGCUCCAGGCAACAUAUUGAACAGCAGGUGAUUUGUUCCUCGAUCCCACCUGGACAACAGAGGAUUGAGCAUCA
# B16: chr3:148802587:148802588:-_ENSG00000071794_ENST00000310053|hu_mus|hu_hu_hu_mus_False|28_48 (ssRNA)
# RNA: GGGAGUUCUACAGUCCGACGAUCUCCAACAACUUGUCCUCUCAUAGUUCCAAAUAAAACCAAAUCUUGCUCUUCAUCACUCGUUAGAAAGUCAUCUGGAGGAAUAACAUCUUGGAAUUCAAAAUGUGGCAAGAAAGUUGAGUACAACAGAGGAUUGAGCAUCA
# B17: chr10:33190432:33190433:-_ENSG00000150093_ENST00000302278|hu_mus|hu_hu_hu_mus_True|38_38 (ssRNA)
# RNA: B12 RNA with A61C, U63C, U65G, U66A
# B18: chr11:50196439:50196440:+_ENSMUSG00000007850_ENSMUST00000069304|mus_hu|motif|central (ssRNA)
# RNA: GGGAGUUCUACAGUCCGACGAUCCCCGUAUCUGUGAUCAGACAUUCCUGAAAAACAGUAAUUGAGGUCUCUUCCAAAUCGGUCUGACCCAAAUCCAUAGCCAUCAUUAUAGCCAUUGUAAUCAUCAUAGCCUCCAUAGCCUCCCAACAGAGGAUUGAGCAUCA
# B19: chr3:63791606:63791607:+_ENSMUSG00000027823_ENSMUST00000029405|mus_mus|motif|central (ssRNA)
# RNA: GGGAGUUCUACAGUCCGACGAUCAAGUAAAACAAUUUCUUCCUUCUGCAGGCCCCUGAAUAAUGAACACGUAUUAUCCAUACGGAUGUUGAAAACUCCAUCCUCUCUAACACUUUUUUUAUGCACAGUGCCUCCAAAGACUUUCAACAGAGGAUUGAGCAUCA
# B20: chr10:112364898:112364899:-_ENSMUSG00000074748_ENSMUST00000099276|mus_mus|motif|central (ssRNA)
# RNA: GGGAGUUCUACAGUCCGACGAUCAUCGAAUUCAAACGGGAAUAUUAAUAUUUUUAGUAUUUAAGUCACAUACCUGACUUCGGUUUGUAUCAAAGAGGCCCAAUUGGAGGCUUAGAAAUCAGAGGAGCAGUCCACCGAAGCUGACAACAGAGGAUUGAGCAUCA
# B21: chr2:91074313:91074314:-_ENSMUSG00000002109_ENSMUST00000150427|mus_hu|FALSE|FALSE (ssRNA)
# RNA: GGGAGUUCUACAGUCCGACGAUCUCCAAUCCCUUUGAUGAAGGUGGGUUUGUCCUUGAUGCCAAAAUUCCAGAGCAUGAUAUCUCCCCCUUUGGAACCCACAGCCACAGUGCUGGGGUGAGUUGGGUGCCACGCCAAGGAUGUCAACAGAGGAUUGAGCAUCA
# B22: chr13:14146135:14146136:-_ENSMUSG00000021302_ENSMUST00000170957|mus_hu|FALSE|FALSE (ssRNA)
# RNA: GGGAGUUCUACAGUCCGACGAUCAGUGUAUUCAAAAGAACCUACAUCCUCAAGAUAAUGUACACAGUAUUUUUUUAUAUCUAUGUUUUCUGUUCUCUGGCGCAAGAUAUUCUGCACCUGGGUGCUUUCAGGCCUUGACCAAAUCAACAGAGGAUUGAGCAUCA
# Molecular target: T1, UNK ZnF1-3
# Test: nsRBNS (natural sequence RNA bind-n-seq); RBNS binding buffer (assumed for nsRBNS): 25 mM Tris pH 7.5, 150 mM KCl, 3 mM MgCl2, 0.01% Triton X-100, 500 ug/ml BSA, 20 U/ml SUPERase-In, 4 C; UNK is unkempt and MSI1 is Musashi-1; names of the RNAs are library labels; protein concentration not given here; high values mean tight binding
row,Binder,binding signal [enrichment R]
1,B1,1.06
2,B2,0.657
3,B3,2.47
4,B4,0.886
5,B5,0.988
6,B6,0.895
7,B7,0.452
8,B8,1.43
9,B9,2.44
10,B10,2.95
11,B11,0.955
12,B12,0.989
13,B13,0.657
14,B14,0.422
15,B15,0.901
16,B16,1.42
17,B17,0.973
18,B18,1.02
19,B19,1.07
20,B20,1.26
21,B21,1.05
22,B22,0.569
